# Structures can show the parent of a compound that is named as a salt. ± gives the standard deviation of the averaged measurements. This is one part of the list.
# Tested on: hAMSC donor 1
# Assay: transfection efficiency (EGFP+ cells / Hoechst count) fold change vs vehicle control (ratio); hAMSC are human adipose-derived mesenchymal stem cells given an EGFP-luciferase plasmid by lipofection; higher = enhanced transfection
# Details: priming compound concentration 100 µM
# 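Also: compounds added 30 min before Lipofectamine 3000 lipoplex transfection, triplicate means relative to DMSO vehicle wells on the same plate, luciferase RLU normalized to BCA total protein.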
row,Structure (SMILES),transfection efficiency
1,CN1CCN(c2nc3cc(C(F)(F)F)ccc3n3cccc23)CC1,1.13 ± 0.68
2,CN1C(C(=O)Nc2ccccn2)=C(O)c2ccccc2S1(=O)=O [Piroxicam],3.24 ± 0.67
3,CC(=O)N1CCN(c2ccc(OCC3COC(Cn4ccnc4)(c4ccc(Cl)cc4Cl)O3)cc2)CC1 (stereo not drawn) [Ketoconazole],1.2 ± 0.11
4,CN(C)C(=O)C(CCN1CCC(O)(c2ccc(Cl)cc2)CC1)(c1ccccc1)c1ccccc1 [Loperamide hydrochloride],0.845 ± 0.73
5,CN(CCO)CC(O)Cn1cnc2c1c(=O)n(C)c(=O)n2C (stereo not drawn) [Xanthinol nicotinate],0.693 ± 0.32
6,CCC1=C(C)CN(C(=O)NCCc2ccc(S(=O)(=O)NC(=O)N[C@H]3CC[C@H](C)CC3)cc2)C1=O [Glimepiride],0.915 ± 0.18
7,CN(C)c1ccc(O)c2c1C[C@H]1C[C@H]3[C@H](N(C)C)C(O)=C(C(N)=O)C(=O)[C@@]3(O)C(O)=C1C2=O [Minocycline hydrochloride],1.54 ± 0.39
8,Nc1nnc(-c2cccc(Cl)c2Cl)c(N)n1 [Lamotrigine],0.966 ± 0.19
9,COCC1=C(C(=O)OC(C)OC(=O)OC(C)C)N2C(=O)[C@@H](NC(=O)/C(=N\OC)c3csc(N)n3)[C@H]2SC1 (stereo partly drawn) [Cefpodoxime proxetil],0.942 ± 0.06
10,CCn1cc(C(=O)O)c(=O)c2ccc(C)nc21 [Nalidixic acid],1.27 ± 0.036
11,O=C(N[C@H](CO)[C@H](O)c1ccc([N+](=O)[O-])cc1)C(Cl)Cl [Chloramphenicol],2.1 ± 0.15
12,C#C[C@]1(O)CC[C@H]2[C@@H]3[C@H](C)CC4=C(CCC(=O)C4)[C@H]3CC[C@@]21C [Tibolone],0.361 ± 0.3
13,Cc1nnc(SCC2=C(C(=O)O)N3C(=O)[C@@H](NC(=O)Cn4cnnn4)[C@H]3SC2)s1 [Cefazolin sodium],1.29 ± 0.11
14,CN(C)CC/C=C1/c2ccccc2COc2ccc(CC(=O)O)cc21 [Olopatadine hydrochloride],1.05 ± 0.41
15,O=C1CN(/N=C/c2ccc([N+](=O)[O-])o2)C(=O)N1 [Nitrofurantoin],1.48 ± 0.52
16,CC(Oc1c(Cl)cccc1Cl)C1=NCCN1 (stereo not drawn) [Lofexidine hydrochloride],0.896 ± 0.28
17,CC(=O)SCC(Cc1ccccc1)C(=O)NCC(=O)OCc1ccccc1 (stereo not drawn) [Racecadotril],0.609 ± 0.18
18,COc1cccc2c1C(=O)c1c(O)c3c(c(O)c1C2=O)C[C@@](O)(C(=O)CO)C[C@@H]3O[C@H]1C[C@H](N)[C@H](O)[C@H](C)O1 [Doxorubicin hydrochloride],0.971 ± 0.7
19,CC1(C)S[C@@H]2[C@H](/N=C/N3CCCCCC3)C(=O)N2[C@H]1C(=O)O [Mecillinam],0.965 ± 0.45

row,Structure (SMILES),transfection efficiency
1,C[C@]12CC[C@@H]3c4ccc(OS(=O)(=O)O)cc4CC[C@H]3[C@@H]1CCC2=O [Estrone 3-sulfate sodium salt],0.697 ± 0.091
2,CC(C)NCC(O)COc1ccc(CC(N)=O)cc1 (stereo not drawn) [Atenolol],1.44 ± 0.5
3,Cc1cc2c(s1)Nc1ccccc1N=C2N1CCN(C)CC1 [Olanzapine],1.11 ± 0.079
4,C[C@H](CCC(=O)O)[C@H]1CC[C@H]2[C@@H]3C(=O)C[C@@H]4CC(=O)CC[C@]4(C)[C@H]3CC(=O)[C@]12C [Dehydrocholic acid],1.17 ± 0.45
5,COc1cc(C(=O)NS(=O)(=O)c2ccccc2C)ccc1Cc1cn(C)c2ccc(NC(=O)OC3CCCC3)cc12 [Zafirlukast],0.558 ± 0.041
6,CN(C)CCc1c[nH]c2ccc(C[C@H]3COC(=O)N3)cc12 [Zolmitriptan],1.59 ± 0.14
7,O=C(O)Cc1ccccc1Nc1c(Cl)cccc1Cl [Diclofenac sodium],1.09 ± 0.41
8,O=C(O)c1cc(/N=N/c2ccc(S(=O)(=O)Nc3ccccn3)cc2)ccc1O [Sulfasalazine],0.657 ± 0.13
9,CC1(C)O[C@@H]2C[C@H]3[C@@H]4C[C@H](F)C5=CC(=O)C=C[C@]5(C)[C@@]4(F)[C@@H](O)C[C@]3(C)[C@]2(C(=O)CO)O1 [Fluocinolone acetonide],2.75 ± 0.91
10,CC(=O)CCCCn1cnc2c1c(=O)n(C)c(=O)n2C [Lomifylline],0.924 ± 0.36
11,CCc1nc(N)nc(N)c1-c1ccc(Cl)cc1 [Pyrimethamine],0.963 ± 0.13
12,COc1cc2nc(N3CCN(C(=O)C4CCCO4)CC3)nc(N)c2cc1OC (stereo not drawn) [Terazosin],0.75 ± 0.085
13,CNC(=C[N+](=O)[O-])NCCSCc1csc(CN(C)C)n1 [Nizatidine],1.05 ± 0.096
14,CC(=O)O[C@H]1C[C@@H]2CC[C@@H]3[C@H](CC[C@@]4(C)[C@H]3C[C@H]([N+]3(C)CCCCC3)[C@@H]4OC(C)=O)[C@@]2(C)C[C@@H]1N1CCCCC1 [Vecuronium bromide],1.39 ± 0.32
15,c1ccc(CC2=NCCN2)cc1 [Priscoline hydrochloride],0.868 ± 0.032
16,CCCCNC(=O)NS(=O)(=O)c1ccc(C)cc1 [Tolbutamide],1.04 ± 0.28
17,Nc1ncn([C@@H]2O[C@H](CO)[C@@H](O)[C@H]2O)c(=O)n1 [5-Azacytidine],0.68 ± 0.054
18,C[C@]12CCC(=O)C=C1CC[C@@H]1[C@@H]2C(=O)C[C@@]2(C)[C@H]1CC[C@]2(O)C(=O)CO [Cortisone],0.859 ± 0.084
19,CN1CC(=O)N2[C@H](c3ccc4c(c3)OCO4)c3[nH]c4ccccc4c3C[C@@H]2C1=O [Tadalafil],1.42 ± 0.3
